Measured values reported in paper PMC4336329 (PLoS ONE, 2015).
The campaign covered roughly 310,000 compounds. About 2,200 (0.71%) showed an effect of 50% or more. The effect is printed as a negative number. Some of the results follow.

Biological target: human ether-à-go-go-related gene (hERG) potassium channel (human, UniProt Q12809)
Assay: primary screen, population patch clamp on CHO cells stably expressing hERG

Chain of human ether-à-go-go-related gene (hERG) potassium channel (Q12809 whole entry, looked up): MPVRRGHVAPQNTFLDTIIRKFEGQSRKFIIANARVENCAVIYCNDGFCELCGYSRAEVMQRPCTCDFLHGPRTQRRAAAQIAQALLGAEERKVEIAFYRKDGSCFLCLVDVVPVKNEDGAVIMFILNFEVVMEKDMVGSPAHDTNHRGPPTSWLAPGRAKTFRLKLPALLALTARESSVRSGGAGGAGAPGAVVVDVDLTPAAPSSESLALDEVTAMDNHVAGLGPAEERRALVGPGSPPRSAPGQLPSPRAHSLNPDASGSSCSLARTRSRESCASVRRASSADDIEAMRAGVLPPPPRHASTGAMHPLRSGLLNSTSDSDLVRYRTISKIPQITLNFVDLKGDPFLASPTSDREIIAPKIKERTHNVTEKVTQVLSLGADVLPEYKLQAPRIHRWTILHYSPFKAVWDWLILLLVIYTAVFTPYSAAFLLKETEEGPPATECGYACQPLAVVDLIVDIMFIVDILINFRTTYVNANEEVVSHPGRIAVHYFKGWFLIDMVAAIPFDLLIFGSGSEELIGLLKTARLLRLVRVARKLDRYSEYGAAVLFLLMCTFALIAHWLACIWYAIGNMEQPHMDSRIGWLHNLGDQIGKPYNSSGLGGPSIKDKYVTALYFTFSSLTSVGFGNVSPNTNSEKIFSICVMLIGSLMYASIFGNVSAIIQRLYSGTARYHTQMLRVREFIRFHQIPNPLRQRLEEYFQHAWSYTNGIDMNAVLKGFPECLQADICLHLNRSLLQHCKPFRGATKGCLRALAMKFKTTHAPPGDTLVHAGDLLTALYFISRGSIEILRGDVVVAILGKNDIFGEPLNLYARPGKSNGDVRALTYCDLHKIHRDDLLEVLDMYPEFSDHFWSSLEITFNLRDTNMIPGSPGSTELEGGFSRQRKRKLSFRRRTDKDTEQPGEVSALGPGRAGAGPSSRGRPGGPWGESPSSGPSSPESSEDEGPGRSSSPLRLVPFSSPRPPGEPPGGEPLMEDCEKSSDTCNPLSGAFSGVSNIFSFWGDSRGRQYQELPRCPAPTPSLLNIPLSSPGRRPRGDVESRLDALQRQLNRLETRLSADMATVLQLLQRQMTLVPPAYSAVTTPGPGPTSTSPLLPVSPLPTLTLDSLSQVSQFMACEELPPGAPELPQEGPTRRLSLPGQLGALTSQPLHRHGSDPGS

Compound | hERG current change (%, negative = inhibition) at 1uM
COc1ccc(C(C(=O)NC2CCCC2)N(C(=O)c2ccoc2C)c2ccc(C)c(C)c2)cc1 (stereo not shown) | 14%
N#C/C(=C/c1ccc(-c2ccc(S(N)(=O)=O)cc2)o1)C(=O)Nc1ccccc1 | -5.9%
CCn1nc(C(=O)NNC(=O)CCOc2cc(C)ccc2C)c2ccccc2c1=O | -27.3%
Cc1onc(-c2ccccc2)c1C(=O)NNC(=O)c1ccccc1 | 9.07%
CC(=O)Nc1ccc(NC(=O)C/C(C)=N/NC(=O)C(=O)N2CCCC2)cc1 | 10.4%
O=C(NCCN1CCOCC1)c1cccc(Cl)c1 | 2.76%
COC(=O)C1=NN(C(C)=O)C2(CC(=O)N(c3cccc(C)c3)C2=O)C1 (stereo not shown) | 11.3%
O=C(CSc1ncn(-c2ccccc2)n1)Nc1nc2c(s1)CCCC2 | -12.1%
CCCC/C=C/C(NC(=O)c1ccc(C(=O)OC)cc1)c1ccccc1 (stereo not shown) | 16%
COCCNC(=O)c1ccc2c(Cl)c3c(nc2c1)CCC3 | -3.41%
Cc1nn2cc(-c3ccc(Cl)cc3)cnc2c1Cl | 13.1%
CC(C)C[C@H](NC(=O)c1[nH]cnc1C(=O)N[C@@H](C)C(=O)OCc1ccccc1)C(=O)OC(C)(C)C | 12.7%
O=C(N/N=C/c1ccccc1Cl)c1ccncc1 | 5.49%
O=c1cnn([C@@H]2O[C@H](CO)[C@@H](O)[C@H]2O)c(=O)[nH]1 | 10.6%
Fc1ccccc1N1CCN(Cc2nc(-c3ccc(Cl)cc3Cl)no2)CC1 | 2.62%
CN(Cc1ccc(Cl)c(Cl)c1)C(=O)C1CSC2(C)CCC(=O)N12 (stereo not shown) | 2.49%
Cc1c(CCC(=O)O)c(=O)oc2cc(O)ccc12 | 11%
C=C(C)CN(CC)c1nc(N)c2c(N)nc3c(c2c1C#N)CC(=O)N3C12CC3CC(CC(C3)C1)C2 | 11.1%
COC(=O)C1=C(c2ccc(OC)c(OC)c2)C[C@@H]2CC[C@H]1N2C(=O)NCC1CC1 | 14.2%
O=C(Nc1cccn(Cc2ccccc2)c1=O)NC1CCCCC1 | -5.94%
Cc1ccc(NS(=O)(=O)c2ccc(NC(=O)[C@@H]3CCCC[C@@H]3C(=O)O)cc2)c(C)c1 | 16.4%
Cc1ccc(S(=O)(=O)C(C#N)c2nc3ccccc3nc2OCCO)cc1 (stereo not shown) | 7.01%

Compound | hERG current change (%, negative = inhibition) at 1uM
COc1ccccc1CC(=O)NNC(=O)CN(C)S(=O)(=O)c1ccc(Cl)cc1 | -5.18%
N/C(=N\OC(=O)c1cccc(Br)c1)c1ccccc1 | 12.6%
CC(=O)Nc1ccc(S(=O)(=O)N(C)c2ccc(OCC(=O)OCC(=O)N3CCCCC3)cc2)cc1 | 5.74%
c1ccc2c(c1)Nc1nccnc1S2 | 5.22%
CC(=O)N(CCC(c1ccccc1)c1ccco1)Cc1cccs1 (stereo not shown) | 6.19%
C/C(=N\OCC(=O)OCC(=O)N(C)c1ccccc1)c1ccc2c(c1)OCO2 | 1.54%
Cc1ccc(-n2nnc3c(=O)n(CC(=O)OCc4ccccc4)cnc32)cc1 | 1.45%
O=C(OCCOc1ccccc1Cl)c1ccc(-n2cnnn2)cc1 | -6.97%
Cc1cc(C)c(C(=O)COC(=O)c2cccnc2Cl)c(C)c1 | 28.1%
COC(=O)C(Cc1ccc(O)cc1)N1Cc2ccccc2C1=O (stereo not shown) | 12.1%
Cc1ccc(-c2csc(=S)n2CC(=O)OCC(=O)NCc2ccc(F)cc2)cc1 | 3.62%
N#CC1=C(N)NC(=S)C(C(N)=O)C1c1ccc(Cl)cc1Cl (stereo not shown) | 19.2%
O=C(NC(Cc1ccccc1)c1nc2ccccc2[nH]1)c1ccc(Cl)c([N+](=O)[O-])c1 (stereo not shown) | 12.3%
CC1=C2C3OC(=O)C(C)C3CC[C@@]2(C)C=CC1=O (stereo partly shown) | 9.53%
O=C(Nc1ccc(N2CCOCC2)cc1)c1cccc2c(Br)cccc12 | 0.0897%
Clc1ccc(/C=N/NC(=Nc2ccccc2)c2ccccn2)c(Cl)c1 | 2.12%
Cl.O=C(Nc1ccccc1)OCC(CN1CCCCC1)OC(=O)Nc1ccccc1 (stereo not shown) | -17.8%
O=C(c1ccc(OC2CCN(Cc3ccccn3)CC2)cc1)N1CCCCCC1 | -3.76%
Cc1ccc(S(=O)(=O)NCc2ccc(C(=O)N3CCN(c4ccccn4)CC3)cc2)cc1 | 7.55%
CCOc1ccc(S(=O)(=O)N2CCN(C(=S)NC3CC3)CC2)cc1 | 4.08%
Cc1ccc2ccc(S(=O)(=O)n3nc(C)cc3C)cc2c1 | 12.4%
CC(=O)N1CCN(Cc2nc3scc(-c4ccccc4)c3c(=O)[nH]2)CC1 | 4.59%

Compound | hERG current change (%, negative = inhibition) at 1uM
O=C(COc1ccccc1)NNc1nc2ccccc2s1 | 2.45%
CC(Sc1nnc(-c2ccccc2)c(-c2ccccc2)n1)C(=O)Nc1ncc(Cl)cc1Cl (stereo not shown) | 10.4%
C=CCNC(=O)C(=O)NCC(c1ccc2c(c1)OCO2)N1CCOCC1 (stereo not shown) | 16%
CC(C)Sc1nnc(Cn2c(=O)sc3ccccc32)n1-c1ccccc1 | 9.47%
COc1cc(OC)c(C(=S)N2CCCC2)cc1OC | 12.4%
C=CCn1c(SCC(=O)N2CC(C)OC(C)C2)nnc1-c1ccncc1 (stereo not shown) | 15.4%
COc1cc(-c2ncc3ccccn23)cc(OC)c1OC.O=C(O)C(=O)O | 13.8%
Cc1ccc(C)c(S(=O)(=O)N2CCN(C(=O)CCC(=O)c3cc(C)sc3C)CC2)c1 | -5.32%
Cc1ccc(NC(=O)CSC2=C(C#N)C(c3ccco3)CC(=O)N2)cc1 (stereo not shown) | 2.3%
Cc1ccc(NC(=O)c2ccc(CNc3c(N4CCOCC4)c(=O)c3=O)cc2)cc1 | -1.1%
CCc1ccccc1NC(=O)CC1CS(=O)(=O)CC1CC(=O)Nc1ccccc1CC (stereo not shown) | 7.06%
COc1ccc2ccccc2c1/C=N/NC(=O)c1cc(C)[nH]n1 | 14.4%
COc1ccc(OCC(=O)N2CCN(C(=O)COc3ccc(Br)cc3)CC2)cc1 | -56.9%
Cc1nc(N2CCN(C)CC2)c2cc(-c3ccccc3)sc2n1 | 7.06%
O=C(Nc1cccc([N+](=O)[O-])c1)c1ccc2c(c1)C(=O)N(c1ccccn1)C2=O | -18%
COc1ccc(/C=C(\NC(=O)c2ccccc2)C(=O)N/N=C/c2sccc2C)cc1 | 7.79%
N#Cc1ccc(OCC(=O)N(C2CCCCC2)C2CCS(=O)(=O)C2)cc1 (stereo not shown) | -18.3%
COCCn1c(SCC(=O)Nc2cc(C)nn2-c2ccccc2)nnc1-c1ccncc1 | -4.86%
CC1CC(C)CN(c2ccc(S(=O)(=O)N3CCOCC3)cc2)C1 (stereo not shown) | 17.2%
COc1ccc(C(C(=O)NC2CCCCC2)N(C(=O)c2ccco2)c2ccc(-n3cnnn3)c(C)c2)cc1 (stereo not shown) | 8.84%
Cc1c(OC(C)C(=O)N2C[C@H]3C[C@@H](C2)c2cccc(=O)n2C3)ccc2c3c(c(=O)oc12)CCC3 (stereo partly shown) | 8.62%
CC(=O)Nc1ccc(C(=O)N(C)c2ccccc2)cc1 | 11.9%

Compound | hERG current change (%, negative = inhibition) at 1uM
N#CC1=C(N)Oc2n[nH]c(-c3cccs3)c2C1c1ccoc1 (stereo not shown) | -2.93%
CCOC(=O)N1CCC(N2C(=O)c3ccccc3C2Nc2cccnc2)CC1 (stereo not shown) | 7.46%
Nn1c(SCc2ccccc2F)nnc1-c1cccnc1 | 25%
N#Cc1c(N)n(CCCN2CCOCC2)c2nc3ccccc3nc12 | -3.85%
COc1ccc(/C=C/C(=O)c2cc(F)ccc2OC(=O)c2ccc(OC)c(OC)c2)cc1OC | 8.54%
CC(CN1CCCCC1)OC(=O)c1ccc(Cl)cc1.Cl (stereo not shown) | -8.36%
COc1ccc(Cl)c(NC(=O)NCCN2CCN(c3ccccc3)CC2)c1 | 1.17%
COc1cc(C(=O)Oc2cc(N)n(S(=O)(=O)c3ccccc3)n2)cc(OC)c1OC | 15.6%
Cc1cc(C)c(S(N)(=O)=O)c(C)c1N(C)S(=O)(=O)c1ccccc1 | 8.03%
Nc1ncnc2c1ncn2[C@@H]1O[C@@H]2COP(=O)([O-])O[C@H]2[C@H]1O.[Na+] | -26.4%
COc1ccc(Cl)cc1NS(=O)(=O)c1cccc(C(=O)NCC(C)(C)N2CCOCC2)c1 | 7.58%
Cc1occc1C(=O)NC(C)C12CC3CC(CC(C3)C1)C2 (stereo not shown) | 10.8%
CC(=O)Nc1ccc(NC(=O)COC(=O)Cc2c[nH]c3ccccc23)cc1 | 14.3%
CCc1ccc(N(C(=O)Cc2cccs2)C(C(=O)NC2CCCCC2)c2cn(C)nc2C)cc1 (stereo not shown) | -9.69%
COc1ccc(NC(=S)NC(=O)c2cncc(Br)c2)cc1 | 15.4%
O=C(NCCc1nnc2ccc(NCc3ccccc3Cl)nn12)c1ccccc1 | 10.9%
CC1C(=O)Nc2ccccc2N1C(=O)c1ccc(F)cc1F (stereo not shown) | 12.1%
O=C(OCc1ccccc1F)c1cc2ccccc2cc1O | 14.6%
CCN(Cc1nc2ccccc2c(=O)[nH]1)C(=O)c1ccc(C)c(NC(=O)c2ccco2)c1 | -0.388%
